This passage reports binding results from paper PMC2828547.

Amino acid sequences for entries named in this document (tags omitted).
UniProt Q9Y5B9: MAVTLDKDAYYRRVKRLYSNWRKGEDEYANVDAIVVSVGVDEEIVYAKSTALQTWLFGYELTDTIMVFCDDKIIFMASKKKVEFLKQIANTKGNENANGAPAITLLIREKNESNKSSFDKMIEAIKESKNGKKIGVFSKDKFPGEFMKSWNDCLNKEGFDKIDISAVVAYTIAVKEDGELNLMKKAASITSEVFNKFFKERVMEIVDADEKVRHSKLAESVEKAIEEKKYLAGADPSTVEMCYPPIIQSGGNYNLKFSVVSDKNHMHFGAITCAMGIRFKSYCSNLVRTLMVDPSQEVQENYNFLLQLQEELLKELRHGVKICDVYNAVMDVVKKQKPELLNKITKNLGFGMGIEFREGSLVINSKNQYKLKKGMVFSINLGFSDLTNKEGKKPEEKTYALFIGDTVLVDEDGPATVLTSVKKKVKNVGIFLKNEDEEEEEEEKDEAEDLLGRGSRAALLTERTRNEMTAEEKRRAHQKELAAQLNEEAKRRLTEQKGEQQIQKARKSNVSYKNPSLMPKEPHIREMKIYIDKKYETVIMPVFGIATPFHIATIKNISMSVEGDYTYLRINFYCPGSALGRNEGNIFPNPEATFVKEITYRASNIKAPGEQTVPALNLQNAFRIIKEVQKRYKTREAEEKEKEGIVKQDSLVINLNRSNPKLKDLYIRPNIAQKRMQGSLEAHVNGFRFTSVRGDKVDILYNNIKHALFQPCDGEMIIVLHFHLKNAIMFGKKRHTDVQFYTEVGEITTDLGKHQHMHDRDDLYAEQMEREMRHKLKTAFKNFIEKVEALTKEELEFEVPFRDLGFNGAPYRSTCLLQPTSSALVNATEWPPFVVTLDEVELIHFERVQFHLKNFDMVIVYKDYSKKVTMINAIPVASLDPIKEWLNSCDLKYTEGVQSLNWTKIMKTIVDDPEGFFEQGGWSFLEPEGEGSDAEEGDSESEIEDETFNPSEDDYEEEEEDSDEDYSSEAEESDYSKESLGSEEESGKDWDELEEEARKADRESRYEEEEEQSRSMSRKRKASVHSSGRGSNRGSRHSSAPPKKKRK
UniProt Q08945: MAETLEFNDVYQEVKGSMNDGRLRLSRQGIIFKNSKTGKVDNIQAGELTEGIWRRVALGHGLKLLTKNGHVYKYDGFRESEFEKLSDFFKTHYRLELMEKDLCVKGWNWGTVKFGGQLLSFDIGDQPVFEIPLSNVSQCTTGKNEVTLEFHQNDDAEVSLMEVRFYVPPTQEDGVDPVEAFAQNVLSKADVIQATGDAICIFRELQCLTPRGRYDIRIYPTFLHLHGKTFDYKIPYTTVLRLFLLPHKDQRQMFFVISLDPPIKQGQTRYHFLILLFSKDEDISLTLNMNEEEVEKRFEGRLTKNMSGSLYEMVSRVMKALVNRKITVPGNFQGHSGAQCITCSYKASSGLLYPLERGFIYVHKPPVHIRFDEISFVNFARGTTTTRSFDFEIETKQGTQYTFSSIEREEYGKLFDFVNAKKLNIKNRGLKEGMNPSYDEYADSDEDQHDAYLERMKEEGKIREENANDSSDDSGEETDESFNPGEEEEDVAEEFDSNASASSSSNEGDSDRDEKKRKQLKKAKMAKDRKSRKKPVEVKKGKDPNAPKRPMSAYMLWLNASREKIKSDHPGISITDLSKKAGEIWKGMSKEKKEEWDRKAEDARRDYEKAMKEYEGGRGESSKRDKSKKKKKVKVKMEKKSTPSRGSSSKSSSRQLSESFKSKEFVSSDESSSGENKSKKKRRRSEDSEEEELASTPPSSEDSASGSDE

These are yes or no findings as the source states them, for the method shown. For part of these data: Binding seen in cells or lysates may run through a third protein. Some entries that bind do so weakly or less than the wild type. For part of these data: Tags and fused reporters may be left off the sequences shown.

One test addresses T1, GST-NXF1-p15 (UniProt Q9UBU9).
T1 sequence 1: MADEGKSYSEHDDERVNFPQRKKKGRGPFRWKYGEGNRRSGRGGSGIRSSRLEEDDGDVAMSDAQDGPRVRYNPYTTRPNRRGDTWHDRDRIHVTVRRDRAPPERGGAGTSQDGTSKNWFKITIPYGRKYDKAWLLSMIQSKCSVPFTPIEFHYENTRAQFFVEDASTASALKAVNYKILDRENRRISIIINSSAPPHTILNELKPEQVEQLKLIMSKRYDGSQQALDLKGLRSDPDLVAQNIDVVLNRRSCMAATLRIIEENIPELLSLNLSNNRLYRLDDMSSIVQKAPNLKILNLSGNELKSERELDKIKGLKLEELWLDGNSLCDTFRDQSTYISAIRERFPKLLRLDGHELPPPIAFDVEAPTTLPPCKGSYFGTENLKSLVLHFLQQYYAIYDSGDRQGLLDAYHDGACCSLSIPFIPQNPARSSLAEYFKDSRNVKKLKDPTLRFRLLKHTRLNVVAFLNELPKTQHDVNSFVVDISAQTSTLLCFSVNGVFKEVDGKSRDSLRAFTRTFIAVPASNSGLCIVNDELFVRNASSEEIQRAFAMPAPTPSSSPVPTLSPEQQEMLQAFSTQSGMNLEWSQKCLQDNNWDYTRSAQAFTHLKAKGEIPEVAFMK
T1 sequence 2: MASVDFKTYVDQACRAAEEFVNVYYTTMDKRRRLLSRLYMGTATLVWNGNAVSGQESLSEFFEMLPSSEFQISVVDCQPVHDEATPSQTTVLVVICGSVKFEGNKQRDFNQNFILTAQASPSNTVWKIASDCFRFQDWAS
As to the kind of experiment: pull-down; competition: GST-NXF1-p15 complexed with GB1-UIF, increasing amounts of GB1-6His-REF2-I; Coomassie staining; both purified.

Test [1] concerns the target T2, FLAG-UIF (human) (UniProt Q96QD9).
T2 sequence: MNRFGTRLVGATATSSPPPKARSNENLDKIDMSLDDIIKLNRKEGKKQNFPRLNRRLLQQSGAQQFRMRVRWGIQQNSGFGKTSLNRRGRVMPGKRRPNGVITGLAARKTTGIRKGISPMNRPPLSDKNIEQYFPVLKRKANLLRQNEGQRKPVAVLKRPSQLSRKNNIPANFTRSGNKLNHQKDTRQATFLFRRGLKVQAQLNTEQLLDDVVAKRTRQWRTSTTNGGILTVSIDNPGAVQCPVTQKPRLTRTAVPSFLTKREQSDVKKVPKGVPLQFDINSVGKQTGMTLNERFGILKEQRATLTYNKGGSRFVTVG
As to the kind of experiment: co-IP; FLAG-UIF immunoprecipitates probed by western blot with the indicated antibodies. For orientation: Immunoblotting shows a protein as a band on a membrane.

Test [2] deals with T2, FLAG-UIF (human). As to the kind of experiment: co-IP; FLAG-UIF and Myc UAP56, FLAG immunoprecipitation in the presence of increasing amounts of recombinant NXF1-p15 (GST as control); detection with the 9E10 Myc antibody.
Test [3] has as its target T2, FLAG-UIF (human). Kind of test: co-IP; FLAG-UIF with Myc-tagged NXF1 or UAP56; immunoprecipitation with FLAG antibody, detection with FLAG and Myc antibodies; with and without RNase.
The target of test [4] is FLAG-REF2-I lacking amino acids 1-15 (UniProt Q9JJW6). Kind of test: co-IP; FLAG-REF2-I fusions and UAP56-Myc expressed in 293T cells; immunoprecipitation with the FLAG antibody, detection with FLAG and Myc antibodies.
The next test deals with FLAG-REF2-I (UniProt Q9JJW6). The test is described as above.
The target of test [5] is FLAG-REF2-I lacking amino acids 1-15 and 198-218 (UniProt Q9JJW6). Described as above.
For test [6], the target named is FLAG-REF2-I lacking amino acids 198-218 (UniProt Q9JJW6). The test is described as above.

As for “GB1-6His-REF2-I (from UniProt Q9JJW6 1-218)”, the binding result with GST-NXF1-p15 is given as “binds”.
Turning to “SPT16 (endogenous) (from UniProt Q9Y5B9 1-1047)”, the binding result in the test with FLAG-UIF (human) [1] is reported as “binds”.
As for UAP56-Myc (from UniProt Q13838 1-428), the binding result with FLAG-UIF (human) [2] is “binds”; with FLAG-UIF (human) [3], “binds”; in test [4], “binds”; with FLAG-REF2-I, “binds”; in test [5], “no binding”; in test [6], “binds”.
Turning to “SSRP1 (endogenous) (from UniProt Q08945 1-709)”, in the test with FLAG-UIF (human) [1], the binding result is reported as “binds”.
